Laboratory results reported in PubChem BioAssay AID686978 (National Center for Advancing Translational Sciences (NCATS), 2013).
Out of some 420,000 compounds screened, about 64,000 (15%) were called active. This list was built around the results that the source calls inconclusive (neither active nor inactive); the mix of calls is not that of the screen. Calls follow the shape of the dose curve; as a rule, active = well fitted inhibition curve with a large enough effect; inconclusive = small, poorly fitted or top-dose-only effect; inactive = flat fitted curve, though single readings scatter. No potency is given beside an inconclusive call; the fits are too rough.

Assay: qHTS for Inhibitors of human tyrosyl-DNA phosphodiesterase 1 (TDP1): qHTS in cells in absence of CPT; also: nearly all actives have a fitted effect of over 55% in size
Details: DT40 Tdp1-/- hTDP1 cells, no CPT, ATP luminescence, 48 h; activity change, negative = growth inhibition: at 46.2 µM (top of the series)
Method in brief: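 No-CPT arm: Tdp1-/-;hTDP1 DT40 cells (400/well) plus compounds, incubated ≥48 hr at 37 °C. Readout CellTiter-Glo luminescence.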
% is scaled to controls: 0 for no effect and ±100 for the full control effect; potency is read from the fitted curve at half-maximal effect; tags tell the direction and shape of the fitted curve.

| SMILES | activity change, negative = growth inhibition | Potency |
| --- | --- | --- |
| COc1ccc(NC(=O)C2CCN(S(=O)(=O)c3c(C)noc3C)CC2)cc1Cl | inactive: -23.8% |  |
| CCn1c(SCc2ccc(C#N)cc2)nnc1-c1ccc(S(=O)(=O)N2CCCCC2)cc1 |  | inconclusive [inhibitor, single point] |
| CCN1CCN(CCCNC(=O)C2CCN(c3nnc(-n4c(C)ccc4C)s3)CC2)CC1 |  | inconclusive [inhibitor, single point] |
| C=CCSc1n[nH]c(-c2ccc(OCCCC)cc2)n1 |  | inconclusive [inhibitor, single point] |
| Cc1ccc(N(CN2CCCC2=O)C(=O)c2ccc(OC(C)C)cc2)cc1 |  | inconclusive [inhibitor, single point] |
| COc1ccc(-c2noc(CSc3nnc(C)n3-c3cccc(C)c3)n2)cc1 |  | inconclusive [inhibitor, single point] |
| COc1ccc(Cc2n[nH]c(=S)n2NC(=O)Nc2ccc(Cl)c(Cl)c2)cc1 |  | active: 7.31 µM |
| O=C(O)c1ccc(N/N=C/c2cn(-c3ccccc3)nc2-c2cccs2)cc1 |  | inconclusive [inhibitor, single point] |
| CCOC(=O)[C@@H]1[C@H]2COc3ccc(Br)cc3[C@@H]2N2C(=O)N(c3ccc(Br)cc3)C(=O)[C@]12C |  | inconclusive [inhibitor, partial curve] |
| O=C(c1cccc(S(=O)(=O)N2CCCc3ccccc32)c1)N1CCN(c2ccccc2)CC1 |  | active: 20.6 µM |
| CCOC(=O)c1nnn(-c2nonc2-n2cccc2)c1CN1CCC(C(=O)OCC)CC1 |  | active: 18.4 µM |
| Cc1cc(C=C(C#N)C#N)c(C)n1-c1ccccc1 |  | inconclusive [inhibitor, partial curve] |
| CCCC1COC(Cn2cncn2)(c2ccc(C)cc2)O1 (centres undefined) |  | active: 11.2 µM |
| C[C@@H]1NC(=O)N[C@@H]1CCCCCC(=O)O | inactive: -12.1% |  |
| CCc1ccc(C2CC(c3ccc(Cl)cc3)=NNC2=O)cc1 (centres undefined) |  | inconclusive [inhibitor, single point] |
| COc1ccc(NC(=O)C(NC(C)=O)C(=O)NCc2ccc(F)cc2)cc1 (centres undefined) |  | inconclusive [inhibitor, single point] |
| CCCCN(CCCC)C(=O)c1ccccc1NC(=O)CN1C(=O)c2ccccc2C1=O | inactive: -17.8% |  |
| CN(c1ccccc1)S(=O)(=O)c1cccc(C(=O)NCCCN2CCCC2=O)c1 | inactive: -16.6% |  |
| CCOC(=O)c1nc(Nc2ccc(C(=O)OC(C)C)cc2)c2ccccc2n1 |  | active: 4.11 µM |
| CN(Cc1nccn1C)C(=O)C1CCC(=O)N(Cc2cccc(C(F)(F)F)c2)C1 (centres undefined) | inactive: 5.23% |  |
| COC(=O)C[C@H]1N(S(=O)(=O)c2ccc(C)cc2)C(C(C)C)CC1(C(=O)OC)C(=O)OC (some centres undefined) |  | inconclusive [inhibitor, single point] |
| COc1ccccc1C1CC(=O)NC(C)=C1C(=O)OC(C)C (centres undefined) |  | active: 13 µM |
| CCOC(=O)C1=CCN(S(=O)(=O)c2ccccc2Br)C1c1ccc(Cl)c(Cl)c1 (centres undefined) |  | active: 18.4 µM |
| O=C(O)c1ccc(N/N=C/c2cccc(F)c2)cc1 | inactive: -0.767% |  |
| CC(=O)N1CCOc2ccc(S(=O)(=O)N3C(C)CCCC3C)cc21 (centres undefined) |  | inconclusive [inhibitor, partial curve] |

| SMILES | activity change, negative = growth inhibition | Potency |
| --- | --- | --- |
| CCOc1ccccc1NC(=O)CN1CCCCCC1 |  | inconclusive [inhibitor, partial curve, poor fit] |
| Cc1cc(C)nc(N2CCC(C(=O)NCCc3ccc(Cl)cc3)CC2)n1 |  | inconclusive [inhibitor, partial curve, poor fit] |
| CCOc1ccc2nc(NC(=O)C(NS(=O)(=O)c3cccc4nsnc34)C(C)C)sc2c1 (centres undefined) |  | inconclusive [inhibitor, single point] |
| O=c1[nH]c(N2CCCCCC2)nc2ncn(Cc3ccccc3)c12 | inactive: 13.7% |  |
| COc1ccc([N+](=O)[O-])cc1NC(=O)COC(=O)Cn1cnc2ccccc2c1=O | inactive: -24.6% |  |
| CC(=O)Oc1ccc(C(=O)Nc2cccc(C(=O)NC(C)(C)C)c2)cc1 | inactive: -26.6% |  |
| C#CCSc1nnnn1-c1ccc(Br)c(C)c1 | inactive: 0.0856% |  |
| CNC(=O)c1ccc2c(c1)N(Cc1cc(C)ccc1C)C(=O)c1ccccc1S2 |  | inconclusive [inhibitor, single point] |
| COc1ccc2cc3cc(C(=O)NCC4CCCO4)oc3nc2c1 (centres undefined) | inactive: -11.3% |  |
| COc1ccc(S(=O)(=O)N(C)C[C@H]2Oc3c(NC(=O)Nc4c(C)noc4C)cccc3C(=O)N([C@@H](C)CO)C[C@H]2C)cc1 |  | inconclusive [inhibitor, single point] |
| CN(CCNC(=O)C1CCCN(c2ncnc3c2nc2n3CCCCC2)C1)Cc1ccccc1 (centres undefined) |  | inconclusive [inhibitor, partial curve] |
| Cc1nnc(SCc2nnc(-c3cccs3)o2)s1 | inactive: 1.49% |  |
| CCOc1ccc(N(CC)C(=O)Cc2c(C(=O)O)n(C)c3ccccc23)cc1 | inactive: 8.2% |  |
| CCCOc1ncnc2c1[nH]c1ccccc12 |  | active: 20.6 µM |
| O=C(NC1CCCCC1)C(c1ccccc1)n1c(=O)c(-c2cc3ccccc3[nH]2)nc2ccccc21 (centres undefined) |  | inconclusive [inhibitor, single point] |
| Cc1cc(-c2cc(-c3ccccc3)on2)nc(NC2CCCC2)n1 |  | inconclusive [inhibitor, single point] |
| O=C(CN1C(=O)CC(c2ccccc2)=Nc2ccccc21)Nc1ccc(Br)cc1 |  | active: 20.6 µM |
| COc1ccc2c(C)cc(SCC(=O)Nc3ccc(Cl)cn3)nc2c1 |  | inconclusive [inhibitor, partial curve] |
| CC(C)c1cccc(-c2csc(C(O)c3ccc(F)cc3)n2)c1 (centres undefined) |  | inconclusive [inhibitor, single point] |
| Clc1ccc2nc(C(Cl)(Cl)Cl)[nH]c2c1 | inactive: 2.8% |  |
| COc1ccc(CNC(=O)c2ccc(-c3nc(CSc4ccc(C)cc4)c(C)o3)cc2)c(OC)c1 |  | inconclusive [inhibitor, partial curve] |
| CC(C)c1ccc(NC(=O)CN2C(=O)NC(Cc3c[nH]c4ccccc34)C2=O)cc1 (centres undefined) |  | active: 16.4 µM |
| CCN(Cc1cc(=O)n2ccsc2n1)Cc1nc2cc(OC)c(OC)cc2c(=O)[nH]1 | inactive: 22.3% |  |
| CC(=O)Nc1cc(-c2ccc(S(C)(=O)=O)cc2)cn2c(-c3ccc(F)cc3)cnc12 |  | inconclusive [inhibitor, partial curve] |
| O=C(N1CCN(c2ccccc2F)CC1)C1(S(=O)(=O)c2ccc(Cl)cc2)CC1 |  | inconclusive [inhibitor, single point] |

| SMILES | activity change, negative = growth inhibition | Potency |
| --- | --- | --- |
| O=[N+]([O-])c1cccc(COc2cccc(CN3CCCC3)c2)c1 |  | inconclusive [inhibitor, single point] |
| COc1ccc(-c2cc(-c3ccccc3)c(C#N)c(SCC(=O)O)n2)cc1 |  | inconclusive [inhibitor, single point] |
| CCOc1ccc(NC(=O)C2CSC(c3ccncc3)=N2)cc1 (centres undefined) |  | inconclusive [inhibitor, single point] |
| Cc1nn(Cc2ccc(Cl)cc2)c(Cl)c1/C=N/NC(=O)CNc1ccccc1F |  | inconclusive [inhibitor, single point] |
| Fc1cccc(NC(=S)NCc2ccccc2Cl)c1 | inactive: -27.7% |  |
| Cc1cccc(Nc2nc(N)c([N+](=O)[O-])c(N3CCCC(C)C3)n2)c1 (centres undefined) |  | active: 10.3 µM |
| COc1ccc(-c2nc(C#N)c(NCc3cccnc3)o2)cc1OC | inconclusive: -30.7% [inhibitor] |  |
| CCC1C(=O)NCCN1Cc1ccc2c(c1)CN(Cc1ccc(F)c(OC)c1)CCO2 (centres undefined) | inactive: -7.5% |  |
| CNC(=O)N(O)C1N(C)C(=O)N(CC(=O)OC)C1(C)C (centres undefined) | inactive: -4.28% |  |
| CCN(CC(=O)Nc1ccc(NC(C)=O)cc1)C(=O)/C=C/c1cn(-c2ccccc2)nc1-c1cccs1 |  | inconclusive [inhibitor, single point] |
| Cc1ccc(Nc2nc(Cl)c(C=O)s2)cc1Cl |  | inconclusive [inhibitor, single point] |
| O=C(O)C(CO)(c1ccccc1)c1ccccc1 | inactive: 3.37% |  |
| COCCn1c(=O)c(-c2ccc(OC)cc2)nc2cnc(N3CCN(C)CC3)nc21 |  | inconclusive [inhibitor, single point] |
| CCCn1ncc(CN2CCN(Cc3ccsc3)C(CCO)C2)c1C (centres undefined) | inactive: -5.41% |  |
| O=C(Nc1ccc2c(c1)OCCO2)c1cc2ccccc2o1 |  | inconclusive [inhibitor, partial curve] |
| CCN(CC(=O)Nc1c(F)cccc1F)C(=O)CSC(=S)N1CCCC1 | inactive: -5.06% |  |
| CCCN1CCN(C(=O)Cn2c(-c3cccs3)cc3cc(F)ccc32)CC1 | inactive: -69.6% |  |
| CCNC(=S)N/N=C/c1cccc(C)c1 |  | inconclusive [inhibitor, single point] |
| Cc1cccc(C)c1NC(=O)CNC(=O)c1ccc(NS(=O)(=O)c2ccc3[nH]c(=O)[nH]c3c2)cc1 | inactive: -1.29% |  |
| CCc1ccc(/C=C/C(=O)c2c(C)cc(C)[nH]c2=O)cc1 |  | active: 16.4 µM |
| COc1ccc(CNC(=O)c2sc(=O)n(Cc3ccccc3OC)c2C)cc1 |  | inconclusive [inhibitor, single point] |
| CCN1CCCC(OC(=O)c2cc(-c3ccccc3Cl)nc3ccccc23)C1 (centres undefined) |  | inconclusive [inhibitor, single point] |
| COc1cc2c(cc1OC)OC(C)(C)C=C2 | inactive: -6.3% [at 9.04 µM] |  |
| CC1CCC2(CC1)NC(=O)N(CC(=O)Nc1ccc(N3CCCCC3)cc1)C2=O (centres undefined) |  | inconclusive [inhibitor, single point] |
